{
  "source": "paper PMC4336329",
  "about": "(PLoS ONE, 2015)",
  "note": "Out of some 310,000 compounds screened, about 14,000 (4.5%) showed an effect of 50% or more. Effects have a minus sign here. Some of the results follow.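 Further: peak tail current of the secondary pulse compared with the same well before compound.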",
  "data": [
    {"molecular_target": "human ether-à-go-go-related gene (hERG) potassium channel (human, UniProt Q12809)", "sequence (Q12809 whole entry, looked up)": "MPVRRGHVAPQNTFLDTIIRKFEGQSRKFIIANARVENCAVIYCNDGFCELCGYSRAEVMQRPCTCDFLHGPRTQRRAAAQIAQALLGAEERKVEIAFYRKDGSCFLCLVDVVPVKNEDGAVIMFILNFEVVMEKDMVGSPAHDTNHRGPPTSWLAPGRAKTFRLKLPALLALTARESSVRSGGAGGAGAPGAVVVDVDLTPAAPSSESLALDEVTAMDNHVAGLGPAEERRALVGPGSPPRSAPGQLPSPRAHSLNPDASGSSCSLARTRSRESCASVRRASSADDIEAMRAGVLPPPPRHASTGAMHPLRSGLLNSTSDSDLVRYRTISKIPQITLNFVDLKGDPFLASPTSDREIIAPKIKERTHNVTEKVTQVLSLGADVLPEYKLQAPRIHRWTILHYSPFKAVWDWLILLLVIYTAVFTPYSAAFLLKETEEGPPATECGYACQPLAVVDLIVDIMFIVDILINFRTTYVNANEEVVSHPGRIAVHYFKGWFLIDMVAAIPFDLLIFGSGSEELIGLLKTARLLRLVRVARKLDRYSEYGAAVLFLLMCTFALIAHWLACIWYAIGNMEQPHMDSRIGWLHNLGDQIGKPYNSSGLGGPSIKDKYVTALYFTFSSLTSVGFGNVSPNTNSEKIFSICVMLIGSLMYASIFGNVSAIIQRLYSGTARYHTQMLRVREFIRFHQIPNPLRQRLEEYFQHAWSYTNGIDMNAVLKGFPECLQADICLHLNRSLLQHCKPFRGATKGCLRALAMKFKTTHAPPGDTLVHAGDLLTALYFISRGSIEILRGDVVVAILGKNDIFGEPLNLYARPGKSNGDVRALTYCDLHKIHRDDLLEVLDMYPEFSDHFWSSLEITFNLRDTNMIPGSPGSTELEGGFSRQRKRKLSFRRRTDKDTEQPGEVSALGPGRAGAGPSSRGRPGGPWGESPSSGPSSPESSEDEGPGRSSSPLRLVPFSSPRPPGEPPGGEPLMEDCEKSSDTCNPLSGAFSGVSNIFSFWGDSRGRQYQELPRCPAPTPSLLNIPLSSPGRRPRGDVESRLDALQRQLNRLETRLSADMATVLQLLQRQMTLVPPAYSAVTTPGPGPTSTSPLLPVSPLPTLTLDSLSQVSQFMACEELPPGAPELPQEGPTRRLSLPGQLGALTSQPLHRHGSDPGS", "experiment": "primary screen, population patch clamp on CHO cells stably expressing hERG", "units": {"hERG current change (%, negative = inhibition) at 10uM": "%"}, "values": [
      {"smiles": "Cc1ccc(NC(=O)CNc2cccc(S(=O)(=O)N3CCOCC3)c2)cc1F", "hERG current change (%, negative = inhibition) at 10uM": -6.71},
      {"smiles": "Cc1cc(Cc2cc(C)c(N)cc2C)c(C)cc1N", "hERG current change (%, negative = inhibition) at 10uM": 14.5},
      {"smiles": "O=C(COC(=O)c1ccccc1[N+](=O)[O-])Nc1nnc(-c2ccccc2)o1", "hERG current change (%, negative = inhibition) at 10uM": 18.4},
      {"smiles": "CC(C)NS(=O)(=O)c1ccc(OCC(=O)NCc2ccc3c(c2)OCO3)c(Cl)c1", "hERG current change (%, negative = inhibition) at 10uM": -16.2},
      {"smiles": "Cc1cccc(C)c1NC(=O)CSc1ccc([N+](=O)[O-])cn1", "hERG current change (%, negative = inhibition) at 10uM": -12.3},
      {"smiles": "CCOC(=O)C1CN(S(=O)(=O)c2ccc(C)cc2)CCN1S(=O)(=O)c1ccc(C)cc1", "note": "(centres unmarked)", "hERG current change (%, negative = inhibition) at 10uM": -0.0378},
      {"smiles": "CCOc1ccc(CCNC(=O)c2cc3sc(Cl)cc3n2C)cc1OCC", "hERG current change (%, negative = inhibition) at 10uM": 18.8},
      {"smiles": "CN(CC(=O)Nc1ccccc1Br)C(=O)CN1CCN(Cc2ccc(Cl)cc2)CC1", "hERG current change (%, negative = inhibition) at 10uM": -66.9},
      {"smiles": "CC(C)(O)[C@H](O)COc1c2occc2cc2ccc(=O)oc12", "hERG current change (%, negative = inhibition) at 10uM": 10.1},
      {"smiles": "CCc1ccc(NSc2ccccc2[N+](=O)[O-])cc1", "hERG current change (%, negative = inhibition) at 10uM": 5.89},
      {"smiles": "COc1cc(CCN2C(=O)c3cccc4cccc(c34)C2=O)c(S(=O)(=O)NCCO)cc1OC", "hERG current change (%, negative = inhibition) at 10uM": -23.8},
      {"smiles": "Cc1cc(C)n(/N=C/c2c[nH]c3ccccc23)c(=O)c1", "hERG current change (%, negative = inhibition) at 10uM": 10.6},
      {"smiles": "Cc1[nH]c2ccccc2c1/C=C(\\C#N)C(=O)NC1CC1", "hERG current change (%, negative = inhibition) at 10uM": 5.75},
      {"smiles": "C=CCn1c(SCC(=O)Nc2ccc(C(=O)OCC)cc2)nnc1-c1sc(N)nc1C", "hERG current change (%, negative = inhibition) at 10uM": -8.97},
      {"smiles": "COc1ccc(C(=O)COC(=O)c2ccco2)cc1", "hERG current change (%, negative = inhibition) at 10uM": 11.5},
      {"smiles": "Cc1cc(NC(=O)c2c(F)cccc2Cl)no1", "hERG current change (%, negative = inhibition) at 10uM": 27.5},
      {"smiles": "Cc1ccc(NC(=O)CC(=O)NCCN2CCOCC2)cc1", "hERG current change (%, negative = inhibition) at 10uM": 4.65},
      {"smiles": "Cc1cccc2nc(CSc3nc4ccccc4[nH]3)cn12", "hERG current change (%, negative = inhibition) at 10uM": -12.9},
      {"smiles": "C=CCn1c(O)c(N=NC(=O)CNC(=O)c2cccs2)c2ccccc21", "hERG current change (%, negative = inhibition) at 10uM": -28.8},
      {"smiles": "COCCn1c(C(F)(F)F)ccc(NC(=O)c2ccccc2)c1=O", "hERG current change (%, negative = inhibition) at 10uM": -13.6},
      {"smiles": "Cc1cc(C(=O)CSc2nc3ccccc3n2C)c(C)n1C", "hERG current change (%, negative = inhibition) at 10uM": 11.1},
      {"smiles": "CSc1nnc(-c2cccn(Cc3ccccc3)c2=O)o1", "hERG current change (%, negative = inhibition) at 10uM": 8.73},
      {"smiles": "COC(=O)c1ccn(CSc2cc(Cl)ccc2Cl)n1", "hERG current change (%, negative = inhibition) at 10uM": 9.54},
      {"smiles": "O=C(CCNC(=O)Cn1cnc2ccccc2c1=O)NCC1CCCO1", "note": "(centres unmarked)", "hERG current change (%, negative = inhibition) at 10uM": 9.55},
      {"smiles": "Cc1ccc(C(=O)CC(=O)c2ccccc2C)c(O)c1", "hERG current change (%, negative = inhibition) at 10uM": 2.17},
      {"smiles": "Cc1nn(CC(=O)NCCCN2CCCC2)c(=O)c2nn(-c3ccccc3)c(C)c12", "hERG current change (%, negative = inhibition) at 10uM": 13.1},
      {"smiles": "C[C@@H]1C[C@H]2OC(=O)C3(CO3)[C@H]2[C@H](O)[C@]2(C)C(=O)C3OC3[C@@H]12", "note": "(some centres unmarked)", "hERG current change (%, negative = inhibition) at 10uM": 23.2},
      {"smiles": "CC(=O)c1cc(-c2ccccc2)n(CCC(=O)NC2CCCC2)c1C", "hERG current change (%, negative = inhibition) at 10uM": 0.876},
      {"smiles": "N#CC(C#N)=C1c2cc(S(=O)(=O)NCCO)ccc2-c2ccc(S(=O)(=O)NCCO)cc21", "hERG current change (%, negative = inhibition) at 10uM": 0.947},
      {"smiles": "O=C(NC1CCN(Cc2ccccc2)C1)c1cc(S(=O)(=O)N2CCOCC2)ccc1Cl", "note": "(centres unmarked)", "hERG current change (%, negative = inhibition) at 10uM": -33.2},
      {"smiles": "O=C(Nc1cccc(Cl)c1Cl)c1ccncc1", "hERG current change (%, negative = inhibition) at 10uM": 14.8},
      {"smiles": "Cc1nc(SCc2c(F)cccc2Cl)c2c(=O)n(C)c(=O)n(C)c2n1", "hERG current change (%, negative = inhibition) at 10uM": -11},
      {"smiles": "Cc1ccc(S(=O)(=O)/N=C(/c2ccccc2)N(C)c2ccc(O)cc2)cc1", "hERG current change (%, negative = inhibition) at 10uM": -6.14},
      {"smiles": "COc1ccc(N(CC(=O)N2CCc3ccccc3C2)S(C)(=O)=O)cc1", "hERG current change (%, negative = inhibition) at 10uM": -19.6},
      {"smiles": "Cn1c(SCC(=O)O)nc2ccccc2c1=O", "hERG current change (%, negative = inhibition) at 10uM": -0.0128},
      {"smiles": "C[C@H](NC(=O)[C@H](Cc1ccccc1)NC(=O)c1cc2cc(Cl)ccc2n1C)C(=O)O", "hERG current change (%, negative = inhibition) at 10uM": 21.3},
      {"smiles": "Cc1occc1C(=O)N/N=C/C(Br)=C/c1ccccc1", "hERG current change (%, negative = inhibition) at 10uM": 9.07},
      {"smiles": "O=C(CSc1nnc(C2CC2)n1-c1ccccc1)Nc1ccc(N2CCOCC2)cc1", "hERG current change (%, negative = inhibition) at 10uM": 7.36},
      {"smiles": "COc1ccc(N2CCN(c3nc4ccccn4c(=O)c3/C=C(\\C#N)S(=O)(=O)c3ccccc3)CC2)cc1", "hERG current change (%, negative = inhibition) at 10uM": -2.49},
      {"smiles": "Cl.Fc1ccc(CNCc2ccc3c(c2)OCO3)cc1", "hERG current change (%, negative = inhibition) at 10uM": 2.11},
      {"smiles": "Cc1ccccc1N(C(=O)c1csnn1)C(C(=O)NC(C)(C)C)c1ccncc1", "note": "(centres unmarked)", "hERG current change (%, negative = inhibition) at 10uM": 10.8},
      {"smiles": "O=C(Nc1cc(Cl)c(Cl)cc1Cl)c1cccnc1", "hERG current change (%, negative = inhibition) at 10uM": -6.92},
      {"smiles": "CC(=O)NC(c1ccco1)c1cc(F)c2cccnc2c1O", "note": "(centres unmarked)", "hERG current change (%, negative = inhibition) at 10uM": -0.00822},
      {"smiles": "CCOc1ccc(NC(=S)N2CCc3cc(OC)c(OC)cc3C2COc2ccc3c(C)cc(=O)oc3c2)cc1", "note": "(centres unmarked)", "hERG current change (%, negative = inhibition) at 10uM": -5.76},
      {"smiles": "CC(NS(=O)(=O)/C=C/c1ccccc1)C(=O)NCCc1ccc(S(N)(=O)=O)cc1", "note": "(centres unmarked)", "hERG current change (%, negative = inhibition) at 10uM": 14.9},
      {"smiles": "Cn1c(=O)cc(-c2ccccc2)c2ccccc21", "hERG current change (%, negative = inhibition) at 10uM": -20.2},
      {"smiles": "S=C1NC(c2cccs2)=CC(c2ccc(Br)cc2)N1", "note": "(centres unmarked)", "hERG current change (%, negative = inhibition) at 10uM": 2.84},
      {"smiles": "CNC(=O)OCc1cccc(COC(=O)NC)n1.Cl", "hERG current change (%, negative = inhibition) at 10uM": 27.2},
      {"smiles": "Cc1c(-c2cccc(Cl)c2)nc2ccccc2c1C(=O)OCC(=O)Nc1ccc2c(c1)OCO2", "hERG current change (%, negative = inhibition) at 10uM": 4.27},
      {"smiles": "CCNc1cc(N2CCN(C)CC2)ccc1[N+](=O)[O-]", "hERG current change (%, negative = inhibition) at 10uM": -7.35},
      {"smiles": "Cc1ccc(S(=O)(=O)Cc2ccc(C(=O)N3CCN(c4cc(C)ccc4C)CC3)o2)cc1", "hERG current change (%, negative = inhibition) at 10uM": -18.7},
      {"smiles": "CCOc1ccc(Cc2nn[nH]n2)cc1", "hERG current change (%, negative = inhibition) at 10uM": 9.6},
      {"smiles": "CCn1c(=O)c(=O)[nH]c2c(=O)oc3ccc(S(=O)(=O)Nc4ccc(OC)cc4)cc3c21", "hERG current change (%, negative = inhibition) at 10uM": 6.59},
      {"smiles": "CNCC(=O)c1ccccc1.Cl", "hERG current change (%, negative = inhibition) at 10uM": 0.121},
      {"smiles": "O=C(NC1CC2CCCC(C1)N2C(=O)Nc1ccc(Cl)c(C(F)(F)F)c1)C1CC1", "note": "(centres unmarked)", "hERG current change (%, negative = inhibition) at 10uM": 12.9},
      {"smiles": "O=c1nc2ccccc2c2n1CC(CN1CCN(C(c3ccccc3)c3ccccc3)CC1)N2", "note": "(centres unmarked)", "hERG current change (%, negative = inhibition) at 10uM": -81.4}
    ]}
  ]
}
